This is an account of results in the supplement of paper PMC11417369.

± gives the standard deviation of the averaged measurements. This is one part of the list.

The experiment concerns PfAP2-G AP2 domain (GST-tagged). Briefly: gcPBM binding intensity (ln(normalized median fluorescence intensity)); higher = stronger DNA binding. A digest of the protocol:
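Binding intensity is the highest Masliner-normalised natural-log median intensity over replicate spots in either probe orientation. To obtain it, GST-tagged P. falciparum DNA-binding domains made in E. coli were incubated for 1 h on an Agilent 4 × 180k array of primer-extended double-stranded 36-bp intergenic genomic probes plus negative controls. Detection used Alexa488 anti-GST antibody with scanning at 488 nm.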
In the case of “ATTTTTTTATAAAATTTTTTATATATTAAATATTAT [CACACA_negctrl_site135]”, the “gcPBM binding intensity (ln)” value stood at 9.58 ± 0.085. Under “ACGTTTTATTTTTATTGTACTCACATTGAAATGAAT [XGTACX_site6094]” stands 11.4 ± 0.98. For the sequence “AAATTTATATAAAACAGTACAATTAAAAAAAAAATA [XGTACX_site8015]”, the “gcPBM binding intensity (ln)” value was 10.7 ± 0.47. As to “TTTTTAAATAACCTATATATTATTATGAAACATAAA [CACACA_negctrl_site916]”, the “gcPBM binding intensity (ln)” value was determined as 9.705 ± 0.078. On to “GTATAATATATTTATAGTACATAATTATTTATAAAT [XGTACX_site1826]”, for which the “gcPBM binding intensity (ln)” value amounted to 11 ± 0.63. Turning to “TATATATATATATTCACACATAAAAATAAAATAAAA [CACACA_site4774]”, the “gcPBM binding intensity (ln)” value came out at 9.98 ± 0.29. Consider “ATGTAACACATATTTGGTACAGATAGATAAAAGTAT [XGTACX_site8291]”, for which the “gcPBM binding intensity (ln)” value came out at 10.8 ± 0.33. On to “TTTTCTTAATATTTATGTATATATATAATATGATAT [TGCATGCA_negctrl_site572]”, for which the “gcPBM binding intensity (ln)” value worked out at 9.74 ± 0.042. “TAATAAATCCTATATAGTACATATATGCAAGTATGT [XGTACX_site3955]”: the “gcPBM binding intensity (ln)” value is 11 ± 0.47. For the sequence “ATATATATATATGTGTGTACTTATTTATTTATTTGT [XGTACX_site549]”, the “gcPBM binding intensity (ln)” value is 11.5 ± 1.

For “TATAACATATTTATATATGACATTATCTATTCATTT [CACACA_negctrl_site864]”, the “gcPBM binding intensity (ln)” value is 9.51 ± 0.17. Under “ACATTAATATAAAGCACACATATATATAATATATAT [CACACA_site508]” stands 10 ± 0.13; under “ATTGATTTTTAATATACACACATAAGTACCACAAAA [CACACA_site339]”, 11.4 ± 0.84; under “AAAAATATAAACTGCACACACAAAAAAAAAAGAGAA [CACACA_site1367]”, 10.1 ± 0.2.

For “CAATATTATTATATTTGTACACATGCGTATTTTTTA [XGTACX_site4154]”, the “gcPBM binding intensity (ln)” value is 11.3 ± 0.54. Turning to “ATATTATGTGATTGTGCACACTGGAGATTTTTTTTA [CACACA_site1453]”, the “gcPBM binding intensity (ln)” value was 10.6 ± 0.3. Under “CCCGTAAATACAAAAAGTACAAAAGTTCATCTTATA [XGTACX_site1154]” stands 11.2 ± 0.68. Take “TTAATATTGTATCCAAGTACACAAATTATTATATTT [XGTACX_site8067]”: the “gcPBM binding intensity (ln)” value came out at 11.4 ± 1. “CATGATATATAAATATGTACATATATATATATATAT [XGTACX_site1760]”: the “gcPBM binding intensity (ln)” value is 11.2 ± 0.69.

Regarding “TAATAATAATATAAAATACACACCTATTATTTTTAC [CACACA_site4003]”, the “gcPBM binding intensity (ln)” value worked out at 9.72 ± 0.22. As to “CCTAATTTTTTTAGTTGTACTTTTTTTTTTTTTTAT [XGTACX_site7948]”, the “gcPBM binding intensity (ln)” value came out at 11.6 ± 0.79. With “CAAATTATTTCGAGGTGTACTTTTTTATATTATATT [XGTACX_site8309]”, the “gcPBM binding intensity (ln)” value turned out to be 11.5 ± 0.89. Under “GCCTATATGTTTAGTTGTACTCCTAATATTATTTGT [XGTACX_site6060]” stands 11.7 ± 1.1. Regarding “TTTATAAATTGACACACACACATGTGAACATAAAAA [CACACA_site6978]”, the “gcPBM binding intensity (ln)” value was found to be 10.5 ± 0.2. Under “AATGTGTTCATATATGCACACGCATATATATTATTG [CACACA_site9274]” stands 10.16 ± 0.085; under “TATATAAATGGACACACACACACCTTATAATTATTA [CACACA_site6093]”, 10.9 ± 0.53. Under “TAACTTAAATAATACATACACACATGTACATACAGA [CACACA_site1594]” stands 11 ± 0.42; under TATAATTTTTTTTGGGTGCTTGGGTAAATTTTATTA, 10.4 ± 0.2.

On to “AAAAAAAAAAAAAATAGTACGTAACTATAATTTCCT [XGTACX_site2457]”, for which the “gcPBM binding intensity (ln)” value came to 11.2 ± 0.56. Regarding “AAATTATAAGTAAAAAGTACTTAATATATAATAAAC [XGTACX_site6065]”, the “gcPBM binding intensity (ln)” value turned out to be 11.1 ± 0.63.

For “CTTATACTTCTACATCGTACAAAAGATGGTATAATT [XGTACX_site2698]”, the “gcPBM binding intensity (ln)” value turned out to be 10.8 ± 0.43. For the sequence “AATTATATATTATCATGTACAAATATAGTAATACAA [XGTACX_site6845]”, the “gcPBM binding intensity (ln)” value turned out to be 10.7 ± 0.4. Consider “ATAAAAAAAAAAAAAAATGAAGCATCACCGTGTAAT [XGTACX_negctrl_site288]”, for which the “gcPBM binding intensity (ln)” value was found to be 9.47 ± 0.14.

Consider “ATACGTATATAATATACATGCATATATAGCACATAC [TGCATGCA_site376]”, for which the “gcPBM binding intensity (ln)” value was 10 ± 0.014. For the sequence “AAAAAAAAAAAAAAAAAAAAAGGACGGATGGATGGA [GTGCAC_negctrl_site527]”, the “gcPBM binding intensity (ln)” value is 11.1 ± 0.53.

“TCTCATTTCAACAACAGTACATATCTATCTGTGTAT [XGTACX_site6897]”: the “gcPBM binding intensity (ln)” value was 10.6 ± 0.32. Under “GAAAGAGAAATATATACACACATATTTATATTTTTA [CACACA_site2066]” stands 9.835 ± 0.049; under “CACGAAAAAAAAAAATGTACATAAAAATATGATACA [XGTACX_site2536]”, 11.2 ± 0.68. Under “ATATATATATATATATGTACATATATCTACATATAT [XGTACX_site7588]” stands 11.3 ± 0.64. Regarding “ACTTTTTAATATTTTAGTACACAGTAATTCTTACTA [XGTACX_site1425]”, the “gcPBM binding intensity (ln)” value was 11.4 ± 0.89. With “ATTTTTATTTTCTTTACACACCACATAACTTTTTTT [CACACA_site7826]”, the “gcPBM binding intensity (ln)” value was determined as 10.3 ± 0.36. Turning to “TATATTAAAAAAAAATGTACATATATATAATATATA [XGTACX_site1935]”, the “gcPBM binding intensity (ln)” value amounted to 11.2 ± 0.7.

For “TTTAATATGAATTTATGTACATATATATATATATAT [XGTACX_site6337]”, the “gcPBM binding intensity (ln)” value turned out to be 11.2 ± 0.78. With “CATTTTTTGCTTTCAACACACATACAATATAAATAA [CACACA_site7858]”, the “gcPBM binding intensity (ln)” value is 10.4 ± 0.3. On to “TTATTTATTTAGTAGTGTACTTTTTATATTTATAAT [XGTACX_site5978]”, for which the “gcPBM binding intensity (ln)” value turned out to be 11.6 ± 0.99.
